In all, about 81,000 sequences were measured (“one-hybrid fitness for binding NBS DNA”: median about -0.1, highest 2% from about 0.36 on). The list shows a part of the results.
B1: Caulobacter ParB omega fusion; a variant is named by its letters at X, in order, B8GW30 (parent)
chain: MESVVVGEPGMSEGRRGLGRGLSALLGEVDAAPAQAPGEQLGGSREAPIEILQRNPDQPRRTFREEDLEDLSNSIREKGVLQPILVRPSPDTAGEYQIVAGERAWRAAQRAGLKTVPIMVRELDDLAVLEIGIIENVQRADLNVLEEALSYKVLMEKFERTQENIAQTIGKSXSHVANXMRLLXLPDEVQSYLVSGELTAXHARAIAAAADPVALAKQIIEGGLSVRETEALARKAPNLSAGKSKGGRPPRVKDTDTQALESDLSSVLGLDVSIDHRGSTGTLTITYATLEQLDDLCNRLTRGI

Variants of: B1
Assay: one-hybrid fitness for binding NBS DNA (the Noc-binding site; scaled: cognate 1, non-cognate 0); higher = stronger binding
Details: with NBS DNA site
Procedure, shortened: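 Pre- and post-selection plasmids were Illumina-sequenced, three replicate libraries were pooled, and any variant with under 10 reads was removed. The libraries were Caulobacter ParB with four specificity codons randomised, selected in E. coli USO through a HIS3 reporter whose site is 19 bp from the promoter. Cells grew 48 hours at 37°C on M9 without histidine, with 0.1 mM IPTG and 5 mM 3-AT. Fitness is the log change in variant-to-wild-type read ratio, rescaled against cognate and non-cognate.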

Point of comparison: RMCR, “one-hybrid fitness for binding NBS DNA” value 0.433. Against it:
- MPRD — lower, ≤ 0.2
- DHVC — lower, ≤ 0.2
- RWKM — lower, ≤ 0.2
- SGYD — lower, ≤ 0.2
- LILY — lower, ≤ 0.2
- WNLA — lower, ≤ 0.2
- RQSA — lower, ≤ 0.2
- QQCM — lower, ≤ 0.2
- LHNF — lower, ≤ 0.2
- VISS — lower, ≤ 0.2
- SSGN — lower, ≤ 0.2
- AIRI — lower, ≤ 0.2
- EALQ — lower, ≤ 0.2
- LFNT — lower, ≤ 0.2
- LHTV — lower, ≤ 0.2
- ALTG — lower, ≤ 0.2
- KMDY — lower, ≤ 0.2
- TCPL — lower, ≤ 0.2
- PRKV — lower, ≤ 0.2
- SKAD — lower, ≤ 0.2
- NLLD — lower, ≤ 0.2
- PCNY — lower, ≤ 0.2
- NGWG — lower, ≤ 0.2
- TRPR — lower, ≤ 0.2
- LLNM — lower, ≤ 0.2
- NTPI — lower, ≤ 0.2
- KEGT — lower, ≤ 0.2
- HQMF — lower, ≤ 0.2
- DQDS — lower, ≤ 0.2
- STRY — lower, ≤ 0.2
- SNTS — lower, ≤ 0.2
- NSDV — lower, ≤ 0.2
- KRMK — lower, ≤ 0.2
- PQLE — lower, ≤ 0.2
- TCIG — lower, ≤ 0.2
- SYRY — lower, ≤ 0.2
- SRGP — lower, ≤ 0.2
- GPIQ — lower, ≤ 0.2
- GQGR — lower, ≤ 0.2
- SEKS — lower, ≤ 0.2
- INTS — lower, ≤ 0.2
- PVTD — lower, ≤ 0.2
- KFPR — lower, ≤ 0.2
- TRCN — lower, ≤ 0.2
- RWIR — lower, ≤ 0.2
- AMSA — lower, ≤ 0.2
- VKAP — lower, 0.214
- TERW — lower, ≤ 0.2
- AECS — lower, ≤ 0.2
- RAHN — lower, ≤ 0.2
- GVHL — lower, ≤ 0.2
- MNLG — lower, ≤ 0.2
- APLY — lower, ≤ 0.2
- YRST — lower, ≤ 0.2
- IMQT — lower, ≤ 0.2
- QGCG — lower, ≤ 0.2
- RDFS — lower, ≤ 0.2
- GTFA — lower, ≤ 0.2
- KQLI — lower, ≤ 0.2
- EDNK — lower, ≤ 0.2
- ARTT — lower, ≤ 0.2
- QMKM — lower, 0.416
- DPVD — lower, ≤ 0.2
- LSEF — lower, ≤ 0.2
- HSPP — lower, ≤ 0.2
- ETPR — lower, ≤ 0.2
- YGYS — lower, ≤ 0.2
- RYVD — lower, ≤ 0.2
- GPAN — lower, ≤ 0.2
- QADN — lower, ≤ 0.2
- TFIT — lower, ≤ 0.2
- TCFS — lower, ≤ 0.2
- HTGI — lower, ≤ 0.2
- QFMY — lower, ≤ 0.2
- LMSE — lower, ≤ 0.2
- SHPV — lower, ≤ 0.2
- FYQC — lower, ≤ 0.2
- ENMG — lower, ≤ 0.2
- TSRD — lower, ≤ 0.2
- ATAY — lower, ≤ 0.2
- PKYL — lower, ≤ 0.2
- GASM — lower, ≤ 0.2
- QMKP — lower, 0.277
- PGYV — lower, ≤ 0.2
- QVPQ — lower, ≤ 0.2
- MQKA — lower, ≤ 0.2
- RKNS — higher, 0.606
- FRAL — lower, ≤ 0.2
- PTCL — lower, ≤ 0.2
- LWLR — lower, ≤ 0.2
- RMMT — lower, 0.302
- WLKA — lower, ≤ 0.2
- SMIY — lower, ≤ 0.2
- KDKR — lower, ≤ 0.2
- QMFL — lower, ≤ 0.2
- PAHC — lower, ≤ 0.2
- VYSF — lower, ≤ 0.2
- SDPT — lower, ≤ 0.2
- AQYC — lower, ≤ 0.2
- LETC — lower, ≤ 0.2
- NSPM — lower, ≤ 0.2
- HVKH — lower, ≤ 0.2
- DQLH — lower, ≤ 0.2
- SCSL — lower, ≤ 0.2
- WRWC — lower, ≤ 0.2
- WWLP — lower, ≤ 0.2
- RNNP — lower, ≤ 0.2
- QVGK — lower, ≤ 0.2
- YIYT — lower, ≤ 0.2
- TLVE — lower, ≤ 0.2
- RYID — lower, ≤ 0.2
- HYYC — lower, ≤ 0.2
- VWLN — lower, ≤ 0.2
- CEHV — lower, ≤ 0.2
- THNT — lower, ≤ 0.2
- IQMS — lower, ≤ 0.2
- PIHE — lower, ≤ 0.2
- HTLV — lower, ≤ 0.2
- QKST — higher, 0.526
- RTHV — lower, ≤ 0.2
- TYQF — lower, ≤ 0.2
- GAMR — lower, ≤ 0.2
- LQNP — lower, ≤ 0.2
- GSPG — lower, ≤ 0.2
- PDLI — lower, ≤ 0.2
- TRYN — lower, ≤ 0.2
- SSND — lower, ≤ 0.2
- GHYV — lower, ≤ 0.2
- ASAI — lower, ≤ 0.2
- TGDC — lower, ≤ 0.2
- WAMA — lower, ≤ 0.2
- HDSS — lower, ≤ 0.2
- PRTF — lower, ≤ 0.2
- QCTA — lower, 0.326
- RKRR — higher, 0.736
- HNQG — lower, ≤ 0.2
- DLES — lower, ≤ 0.2
- KLRW — lower, ≤ 0.2
- LPVL — lower, ≤ 0.2
- AGKK — lower, ≤ 0.2
- LHTN — lower, ≤ 0.2
- KPTL — lower, ≤ 0.2
- HAVL — lower, ≤ 0.2
- MNER — lower, ≤ 0.2
- HTCW — lower, ≤ 0.2
- RTCS — higher, 0.467
- TWMI — lower, ≤ 0.2
- RSTM — lower, ≤ 0.2
- ADRR — lower, ≤ 0.2
- TLIC — lower, ≤ 0.2
- ARGS — lower, ≤ 0.2
- RVFV — lower, ≤ 0.2
- TTEL — lower, ≤ 0.2
- VDSD — lower, ≤ 0.2
- INTT — lower, ≤ 0.2
- MNTF — lower, ≤ 0.2
- LDGA — lower, ≤ 0.2
- PTYS — lower, ≤ 0.2
- HERR — lower, ≤ 0.2
- VRWL — lower, ≤ 0.2
- FGGG — lower, ≤ 0.2
- WQAC — lower, ≤ 0.2
- YFVS — lower, ≤ 0.2
- WKTC — lower, ≤ 0.2
- SYWL — lower, ≤ 0.2
- WSQS — lower, ≤ 0.2
- CYQC — lower, ≤ 0.2
- AAGY — lower, ≤ 0.2
- MCVR — lower, ≤ 0.2
- KTPK — lower, ≤ 0.2
- REAY — lower, ≤ 0.2
- ARMR — lower, ≤ 0.2
- GTPD — lower, ≤ 0.2
- VLCV — lower, ≤ 0.2
- VYTF — lower, ≤ 0.2
- ACAS — lower, ≤ 0.2
- RLTE — lower, ≤ 0.2
- FWRE — lower, ≤ 0.2
- PNKI — lower, ≤ 0.2
- SLKP — lower, ≤ 0.2
- LLHP — lower, ≤ 0.2
- RRID — lower, ≤ 0.2
- NRCS — lower, ≤ 0.2
- TSEV — lower, ≤ 0.2
- YPLT — lower, ≤ 0.2
- CGLT — lower, ≤ 0.2
- CKYS — lower, ≤ 0.2
- FSST — lower, ≤ 0.2
- HGVR — lower, ≤ 0.2
- MMES — lower, ≤ 0.2
- DKST — lower, ≤ 0.2
- RNNF — lower, ≤ 0.2
- HFGG — lower, ≤ 0.2
- MVQS — lower, ≤ 0.2
